Test results published in the supplement of paper PMC12217912.
The list shows a part of the results. The full chains were built here from the parent and the listed change. Inactive controls read about 0.05.

B1: TEV protease; numbered along this chain (parent)
chain: MGESLFKGPRDYNPISSSICHLTNESDGHTTSLYGIGFGPFIITNKHLFRRNNGTLVVQSLHGVFKVKDTTTLQQHLVDGRDMIIIRMPKDFPPFPQKLKFREPQREERICLVTTNFQTKSMSSMVSDTSCTFPSGDGIFWKHWIQTKDGQCGSPLVSTRDGFIVGIHSASNFTNTNNYFTSVPKNFMELLTNQEAQQWVSGWRLNADSVLWGGHKVFMVKPEEPFQPVKEATQL

Variants of: B1
Test: raw area under fraction-flipped curve 0-4 h after induction (AUC4h, not background-subtracted), DNA-recorder readout of cleavage of the substrate (dimensionless); higher = more cleavage of the substrate by the protease variant
Conditions: temperature: 34 °C; time window: 0-4 h after rhamnose induction
Description: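 In vivo DNA recorder in E. coli TOP10(DE3) ΔrhaA at 34 °C. Each TEVp single-site mutant (parent TEVp 0) is paired with a single-site variant of the 7-mer TEVs (canonical ENLYFQ|S). The substrate sits between flexible linkers in a Bxb1-sfGFP-TEVs-SsrA fusion, so cleavage stabilises Bxb1 and speeds flipping of a recombination array, read by NGS. The value is the raw area under the fraction-flipped curve over 0-4 h after rhamnose induction (AUC4h), with ≥20 reads per time point. It is not background-subtracted; inactive controls average about 0.047.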
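Also: Bxb1 expression induced with 0.2% (w/v) L-rhamnose at OD600 near 0.5, cultures sampled hourly, flipped fraction per protease–substrate barcode pair counted by paired-end Illumina sequencing.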

| Variant | area with substrate ENLYAQS | area with substrate ENLYCQS | area with substrate ENLYDQS | area with substrate ENLYEQS | area with substrate ENLYGQS | area with substrate ENLYIQS | area with substrate ENLYKQS | area with substrate ENLYMQS | area with substrate ENLYNQS | area with substrate ENLYPQS | area with substrate ENLYQQS | area with substrate ENLYRQS | area with substrate ENLYSQS | area with substrate ENLYTQS | area with substrate ENLYVQS | area with substrate ENLYWQS | area with substrate ENLYYQS | area with substrate ENLYHQS | area with substrate ENLYLQS |
| --- | --- | --- | --- | --- | --- | --- | --- | --- | --- | --- | --- | --- | --- | --- | --- | --- | --- | --- | --- |
| Q234V | 0.0551 | 0.0736 | 0.0759 | 0.0715 | 0.063 | 0.119 | 0.0615 | 0.0802 | 0.0669 | 0.0685 | 0.0772 | 0.06 | 0.0709 | 0.0832 | 0.106 | 0.0625 | 0.0651 |  |  |
| L33Y | 0.0585 | 0.0642 | 0.0653 | 0.0678 | 0.0483 | 0.06 | 0.0522 | 0.059 | 0.0613 | 0.0499 | 0.0607 | 0.0943 | 0.0526 |  | 0.0599 | 0.0541 | 0.0575 | 0.0651 | 0.0667 |
| T233E | 0.0672 |  |  |  | 0.0735 |  |  |  | 0.0728 |  |  | 0.0745 | 0.0625 | 0.0825 |  |  |  | 0.0563 | 0.0933 |
| T23K | 0.0855 |  | 0.0609 | 0.0624 | 0.0611 | 0.0977 | 0.0706 | 0.0858 | 0.0765 | 0.0606 | 0.0677 | 0.06 |  |  | 0.0949 | 0.0549 |  | 0.0647 | 0.0723 |
| I42V | 0.0647 | 0.0876 | 0.0536 |  | 0.0703 |  | 0.0449 | 0.0688 | 0.0712 | 0.0677 |  | 0.0575 | 0.0576 | 0.0762 | 0.107 | 0.0914 |  | 0.0752 |  |
| S135N | 0.0282 | 0.0803 | 0.057 | 0.0558 | 0.0563 | 0.0686 |  |  | 0.0542 | 0.0624 | 0.0665 | 0.0524 | 0.069 |  | 0.0922 | 0.058 |  | 0.0613 |  |
| I167V | 0.068 | 0.103 |  | 0.0587 |  | 0.115 | 0.0592 | 0.0704 |  | 0.079 |  | 0.0558 | 0.0685 |  | 0.0967 | 0.07 |  | 0.0581 |  |
| C20W | 0.0458 |  | 0.0499 | 0.042 | 0.0251 | 0.0459 | 0.0311 | 0.0397 | 0.0365 |  | 0.0428 |  | 0.0441 | 0.0336 | 0.0543 | 0.0172 | 0.0435 | 0.0377 |  |
| D11F | 0.0599 | 0.083 |  | 0.0398 | 0.0687 |  | 0.0569 | 0.0877 | 0.0672 | 0.0764 | 0.054 |  | 0.071 |  | 0.0749 | 0.0746 | 0.0414 | 0.0737 |  |
| F173H | 0.0725 | 0.0766 | 0.0497 | 0.0575 | 0.0719 | 0.101 | 0.0645 | 0.0714 | 0.0625 | 0.0699 | 0.0731 | 0.0635 | 0.078 | 0.0597 | 0.088 | 0.0613 | 0.0727 | 0.0645 | 0.0582 |
| V67S | 0.0634 |  | 0.0521 | 0.0681 | 0.0536 | 0.0928 | 0.0797 | 0.076 | 0.0564 | 0.0713 | 0.0552 | 0.0572 | 0.0653 | 0.0696 | 0.0911 | 0.0657 | 0.0588 | 0.0681 |  |
| V67W | 0.0774 |  | 0.059 | 0.0735 | 0.0723 |  | 0.0669 | 0.0893 | 0.0744 | 0.07 |  |  | 0.079 |  | 0.112 | 0.0702 |  | 0.0568 |  |
| V210N | 0.0749 |  |  | 0.0527 | 0.0564 |  | 0.0166 | 0.0655 | 0.0654 |  | 0.0617 | 0.0586 |  | 0.0666 |  | 0.0505 | 0.0723 | 0.0619 |  |
| Q151N | 0.0712 |  | 0.0602 | 0.0551 | 0.0617 | 0.0895 | 0.062 |  | 0.0558 | 0.0653 | 0.0562 | 0.0596 |  |  | 0.0703 | 0.0695 | 0.0573 | 0.0661 | 0.0588 |
| V220G | 0.0721 | 0.095 |  | 0.0756 | 0.0665 | 0.104 | 0.0585 | 0.0829 | 0.0675 | 0.069 |  | 0.0575 | 0.0689 |  | 0.132 | 0.086 | 0.0673 |  |  |
| M188S | 0.0681 |  | 0.0624 | 0.0721 | 0.0678 |  | 0.0647 |  | 0.0853 |  | 0.0559 |  | 0.0818 | 0.0654 | 0.143 | 0.0608 |  |  |  |
| G136D | 0.0695 | 0.0959 | 0.0593 | 0.0597 |  |  | 0.0748 | 0.0597 | 0.061 | 0.0674 |  | 0.0558 | 0.0736 | 0.061 | 0.12 | 0.0611 | 0.0583 | 0.0788 | 0.0687 |
| E3R | 0.062 |  | 0.0462 | 0.0813 | 0.0654 |  | 0.0505 | 0.0928 | 0.0746 |  | 0.0758 | 0.0839 | 0.0723 | 0.0616 | 0.114 | 0.0903 |  | 0.0716 | 0.0636 |
| G162L | 0.0864 | 0.0878 |  | 0.0664 | 0.0753 |  | 0.0539 | 0.0853 | 0.0575 | 0.0623 |  | 0.0622 |  | 0.0528 | 0.0888 | 0.0638 | 0.0479 | 0.0686 |  |
| S4Y | 0.0397 |  | 0.0565 | 0.0567 |  |  |  | 0.13 |  | 0.0843 |  | 0.0738 | 0.101 | 0.0873 |  | 0.12 |  | 0.0561 | 0.0927 |
| H143G | 0.0701 |  | 0.0575 | 0.0718 | 0.0623 | 0.0824 | 0.0588 |  |  | 0.077 |  |  | 0.0567 | 0.062 | 0.111 | 0.0801 | 0.0585 | 0.0465 | 0.0699 |
| K90V | 0.0632 |  | 0.0485 | 0.0754 | 0.0683 |  |  | 0.0625 | 0.0621 | 0.0785 | 0.0762 | 0.0762 | 0.0617 | 0.0537 | 0.123 | 0.0728 |  | 0.0579 |  |
| F101V | 0.0424 |  | 0.048 | 0.04 | 0.037 |  | 0.0355 |  |  |  |  | 0.0417 |  | 0.0573 |  |  |  | 0.0467 |  |
| G37S | 0.0492 |  | 0.06 | 0.0594 | 0.0587 | 0.0815 |  | 0.0606 | 0.0603 |  | 0.0559 |  |  |  | 0.0756 | 0.0502 |  | 0.0635 | 0.0736 |
| V113S | 0.0559 |  | 0.0591 | 0.0612 |  |  | 0.0609 | 0.0594 | 0.057 |  | 0.0467 | 0.0572 |  | 0.0667 | 0.0753 |  |  | 0.0723 | 0.0677 |
